Measured values from the BET-seq Pho4 binding data (Le et al. 2018).
Some of the results follow. The energies were worked out here from pooled read counts, against the library average; single values are noisy.

Molecular target: T1, Pho4 (S. cerevisiae) (UniProt P07270)
T1 sequence: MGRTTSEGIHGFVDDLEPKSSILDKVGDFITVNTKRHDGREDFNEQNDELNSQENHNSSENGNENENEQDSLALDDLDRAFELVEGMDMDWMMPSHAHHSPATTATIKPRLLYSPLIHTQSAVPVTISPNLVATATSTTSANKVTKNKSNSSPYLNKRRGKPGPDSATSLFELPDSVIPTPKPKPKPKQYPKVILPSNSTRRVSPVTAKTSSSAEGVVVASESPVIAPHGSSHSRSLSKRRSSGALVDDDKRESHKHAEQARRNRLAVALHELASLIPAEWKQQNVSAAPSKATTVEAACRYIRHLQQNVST
Assay: relative binding free energy (BET-seq); higher = weaker binding
Conditions: reference: library average

Sequence	relative binding free energy [kcal/mol]
GTGTGCACGTGCATGT	0.01
TATGTCACGTGCTGAA	0.01
AGGGACACGTGGACGT	0.07
AAATTCACGTGTGTGT	0.44
GTAGTCACGTGCAGAG	0.04
AGATTCACGTGTTGGA	0.2
GGGTACACGTGAAGGT	0.49
ATTAGCACGTGACTGT	0.19
GTGTCCACGTGGTAAG	0.11
AGTCACACGTGTTTGG	0
CGATTCACGTGTTTGA	0.38
TGGTTCACGTGCACAT	0.33
AGGGACACGTGGGGTG	-0.09
AACTTCACGTGGGTGT	0.18
TTAGGCACGTGGCCGT	-0.17
TTTATCACGTGTGGTT	0.13
TGGCGCACGTGGCGGA	-0.18
ATTTGCACGTGGGGCC	-0.13
TGCAACACGTGGGTAG	-0.06

Sequence	relative binding free energy [kcal/mol]
AGTCGCACGTGGTTAG	-0.14
GCTTACACGTGTGATG	0.18
ATCGTCACGTGTATAG	0.3
CATGGCACGTGGTGAA	-0.13
TATGTCACGTGGTGGA	-0.04
GGGGGCACGTGAACAG	0.18
CATGGCACGTGAGGTT	0.12
GAAAGCACGTGTTAGG	-0.01
GATAGCACGTGTTTCG	0.04
AGGCGCACGTGGCGTT	-0.2
TATCGCACGTGGTTGA	-0.02
ATGAGCACGTGGCATA	-0.03
CGTGCCACGTGTGTGT	-0.09
ATTGTCACGTGGTAGC	0.06
CTGGTCACGTGAGGCT	0.31
CAGTGCACGTGGTGGG	-0.14
GGTCTCACGTGAGAGG	0.46
TGTGGCACGTGAGGAA	0.14
TATCGCACGTGGTCTG	-0.15

Sequence	relative binding free energy [kcal/mol]
TTTGACACGTGAGAGA	0.15
AGTGTCACGTGGAGGG	-0.01
GGGGGCACGTGTTTTG	0.05
TTCAGCACGTGGAGGG	-0.09
GCTGTCACGTGTATTG	0.03
CTCTTCACGTGAGGGT	0.2
TGGGTCACGTGAGGAC	0.28
GGGGCCACGTGGGGAC	-0.26
GTGGTCACGTGAAGTT	0.36
TGTCTCACGTGGAGTG	0.02
GTGTTCACGTGAGGTC	0.26
AACTTCACGTGTGTGG	0.32
GTATTCACGTGGCAGA	0.35
TAGGTCACGTGCTAGG	-0.05
GTTGTCACGTGTGCGC	0.15
ACATTCACGTGTAGTG	0.2
TTGTCCACGTGTGAAG	0.18
TCAGGCACGTGGATGT	-0.01
GTCGACACGTGGTGAG	0.11
